Results from US20180030098A1 (NAVIGO PROTEINS, published 2018).

target: T1, Recombinant human EGFR-Fc Chimera (R&D Systems, catalog no. 344-ER-050) (human, UniProt P00533 25-645); test: SPR (Biacore) on immobilised hEGFR-Fc
T1 construct: range 1-645; Bought reagent; Immobilised on the CM5 chip for SPR; also called hEGFR-Fc; not shown: Fc region of human IgG1, fused at the C-terminus

Row | Kd | Binder
1 | 2 nM | SEQ ID NO 17 (designed binder) MQIFVKTLTEYSYMYGKTITLEVEPSDTIENVKAKIQDKEGIPPDQQRLIWAGKQLEDGRTLSDYNIQNPDILHLVLRLRAA
2 | 19 nM | SEQ ID NO 18 (designed binder) MQIFVKTLTEQDDYHGKTITLEVEPSDTIENVKAKIQDKEGIPPDQQRLIWAGKQLEDGRTLSDYNIQNPDILHLVLRLRAA
3 | 57 nM | SEQ ID NO 20 (designed binder) MQIFVKTLTQDPYRYGKTITLEVEPSDTIENVKAKIQDKEGIPPDQQRLIWAGKQLEDGRTLSDYNIQNPDILHLVLRLRAA
4 | 184 nM | SEQ ID NO 14 (designed binder) MQIFVKTLTESERWYGKTITLEVEPSDTIENVKAKIQDKEGIPPDQQRLIWAGKQLEDGRTLSDYNIQHPDILHLVLRLRAA
5 | 150 nM | SEQ ID NO 8 (designed binder) MQIFVKTLTEYEPEWGKTITLEVEPSDTIENVKAKIQDKEGIPPDQQRLIWAGKQLEDGRTLSDYNIGEPDILHLVLRLRAA
6 | 60 nM | Affilin 139829 (designed binder) MQIFVKTLTPEQHMYGKIITLEVEPSDTIENVKAKIQDKEGIPPDQQRLIWAGKQLEDGRTLSDYNIRHPDILHLVLRLRAA
7 | 130 nM | Affilin 139817 (designed binder) MQIFVKTLTEAMGWDGKTITLEVEPSDTIENVKAKIQDKEGIPLDQQRLIWAGKQLEDGRTLSDYNIQNPDILHLVLRLRAA
8 | 110 nM | Affilin 139826 (designed binder) MQIFVKTLTEHDAYGGKTITLEVEPSDTIENVKAKIQDKEGIPPDQQRLIWAGKQLEDGRTLSDYNITHPDILHLVLRLCAA
9 | 243 nM | SEQ ID NO 15 (designed binder) MQIFVKTLTDHEMNYGKTITLEVEPSDTIENVKAKIQDKEGIPPDQQRLIWAGKQLEDGRTLSDYNIQHPDILHLVLRLRAA
10 | 133 nM | Affilin 139808 (designed binder) MQIFLKTLTQYSEDGGKIITLEVEPSDTIENVKAKIQDKEGIPPDQQRLIWAGKQLEDGRTLSDYNIQQPDILHLVLRLRAA
11 | 220 nM | SEQ ID NO 9 (designed binder) MQIFVKTLTESDWYTGKTITLEVEPSDTIENVKAKIQDKEGIPPDQQRLIWAGKQLEDGRTLSDYNIGHPDILHLVLRLRAA
12 | 550 nM | SEQ ID NO 11 (designed binder) MQIFVKTLTEEDYYNGKTITLEVEPSDTIENVKAKIQDKEGIPPDQQRLIWAGKQLEDGRTLSDYNIHHPDILHLVLRLRAA
13 | 537 nM | SEQ ID NO 10 (designed binder) MQIFVKTLTPWRGYDGKTITLEVEPSDTIENVKAKIQDKEGIPPDQQRLIWAGKQLEDGRTLSDYNIIHADILHLVLRLRAA
14 | 61 nM | SEQ ID NO 12 (designed binder) MQIFVKTLTMEQAGYGKTITLEVEPSDTIENVKAKIQDKEGIPPDQQRLIWAGKQLEDGRTLSDYNIQAPDILHLVLRLRAA
15 | 0.97 nM | SEQ ID NO 13 (designed binder) MQIFVKTLTEYEPEYGKTITLEVEPSDTIENVKAKIQDKEGIPPDQQRLIWAGKQLEDGRTLSDYNIQHPDILHLVLRLRAA
16 | 274 nM | SEQ ID NO 16 (designed binder) MQIFVKTLTEGDQWYGKTITLEVEPSDTIENVKAKIQDKEGIPPDQQRLIWAGKQLEDGRTLSDYNIQHPDILHLVLRLRAA
17 | 33 nM | SEQ ID NO 19 (designed binder) MQIFVKTLTEQDGYHGKTITLEVEPSDTIENVKAKIQDKEGIPPDQQRLIWAGKQLEDGRTLSDYNIQNPDILHLVLRLRAA
